Source: paper PMC12136788
The list shows a part of the results.

T1: UNK ZnF1-3 (human, UniProt Q9C0B0 31-174)
T1 sequence: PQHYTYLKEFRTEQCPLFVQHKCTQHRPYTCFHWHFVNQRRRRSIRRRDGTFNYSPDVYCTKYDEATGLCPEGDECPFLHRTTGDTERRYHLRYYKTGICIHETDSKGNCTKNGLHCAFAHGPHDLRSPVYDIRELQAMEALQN

B1: chr7:133995287:133995288:-_ENSMUSG00000030689_ENSMUST00000106343|mus_mus|motif|central (ssRNA)
RNA: GGGAGUUCUACAGUCCGACGAUCGCCUGCCUUUGUUCUCAGGAAUUCUUCUAUGAGAUUGAACUCUCCACUCUGGCCACGGAGACCCUGGAGGUCACAGUCUGGGACUACGACAUUGGCAAAUCCAAUGACUUCAUAGGUGAGCAACAGAGGAUUGAGCAUCA
B2: chr4:95690885:95690886:+_ENSMUSG00000028572_ENSMUST00000156910|mus_mus|mus_mus_mus_hu_False|18_88 (ssRNA)
RNA: GGGAGUUCUACAGUCCGACGAUCUUUAGAAAAUGUUAAAUACCAUGAGCAUGCUAAUUCAAAGGCUUAUUUUAUUUUACCAGAAGUCACAGGCAAGCAGACACUACAAGAAUAUAUAAAUACAAACCUCAACAAUAUAACUGUCAACAGAGGAUUGAGCAUCA
B3: chr18:38101097:38101098:-_ENSMUSG00000024454_ENSMUST00000043498|mus_hu|motif|central (ssRNA)
RNA: GGGAGUUCUACAGUCCGACGAUCGGUGCUGACAUCUGGAUGAAGUGUGAAGUCUGGGGCAAAGUACUCGAAGUAUUCACGGUAGGGAAGCUCCUCACUAAUGGCCUCUUCUACCAGCAGCGAUGUCUCAUAUGUCCAGCAGCGCAACAGAGGAUUGAGCAUCA
B4: chr2:114342542:114342543:-_ENSMUSG00000057147_ENSMUST00000102542|mus_mus|motif|central (ssRNA)
RNA: GGGAGUUCUACAGUCCGACGAUCCUGGGAUUAAAGGUGUACACCACUGCCUGGCUACGCAUGAUUCUUAAGACAGUAAAACGGUUGUGUUAUAGGAGUGUAAUGAUGCAUAUAUGUCUUUGAACAUUUGUUAAAUCCCGUGGACAACAGAGGAUUGAGCAUCA
B5: 137534387_137536831_709_CDS_ENSG00000094880_ENST00000394886|human|control|control (ssRNA)
RNA: GGGAGUUCUACAGUCCGACGAUCCUCCUCUAUCAACUGCAACUCUGUGUAUAUAUGAGCCAGAAAAAACUCUUUCAUCCAGGUGUCUGGCAAAGACAGGAACUUCAGCAUCUCUUUGUCUGUGAUCAGGUUACAGAGUUCUAACAACAGAGGAUUGAGCAUCA
B6: chr16:94653416:94653417:+_ENSMUSG00000040785_ENSMUST00000117648|mus_hu|FALSE|FALSE (ssRNA)
RNA: GGGAGUUCUACAGUCCGACGAUCCAUGAUACUAAAAUCAAGCAGUUUAAGAGAUGCUCCAUAACGAGAAAAGAAAGUUCCUGUGGCAUCUAAGCCAAAGCUAUUAAGUUUUUGGAUCCAGGCGGCUAAUUUGGGCUCCACUUCCAACAGAGGAUUGAGCAUCA
B7: chr10:131964826:131964827:+_ENSG00000108010_ENST00000331244|hu_mus|FALSE|FALSE (ssRNA)
RNA: GGGAGUUCUACAGUCCGACGAUCAUUAGAGUACGUUUUGAGCCCCUGUCGAACUUCUUCAUCUGAGAAGAUAUCAAAGCUGCUGAACUGAAUAUUGUGUUUGUGAAGGAUUUCCACCAUCUGCUUGCUGAAACCACAGCGUGGCAACAGAGGAUUGAGCAUCA
B8: chr7:30656748:30656749:+_ENSG00000106105_ENST00000389266|hu_mus|motif|central (ssRNA)
RNA: GGGAGUUCUACAGUCCGACGAUCAUCAGGAGAUAUUCCAACCUUCGUGAGGUAGAGGUAGAUGCGGCCAAUAAAAUAGCCGGAUACUGAGUUGUUAAUCACACCCUGUUCAACAGCAUCUCCCAGACGCAUCUUCCGAGCAGACAACAGAGGAUUGAGCAUCA
B9: chr11:43861564:43861565:+_ENSG00000149084_ENST00000278353|hu_mus|FALSE|FALSE (ssRNA)
RNA: GGGAGUUCUACAGUCCGACGAUCCAGUUUUGUAGCUACAAGGUAUGGCAUGACACUCUGCACAAAGAUGCCCUUGCUCUUAUACUCCUCAUGGAGGCACUGAGAGAAGAAAUCUACAAAGGCCUUGGUUGCAGAGUAGAUUGUCAACAGAGGAUUGAGCAUCA
B10: chr1:45244325:45244326:+_ENSG00000142937_ENST00000396651|hu_hu|motif|central (ssRNA)
RNA: GGGAGUUCUACAGUCCGACGAUCUUACAUGGGUGAAGACAAAACAAGGAUUUAUUUGCCUUUGCGGGCCUUGAUUUUCCGGAGAUAGAACUCCAACUCUUUGCCCUCUAGCACAUAGCCAUCUGCUCGGCCACACUGUCCCGGCAACAGAGGAUUGAGCAUCA
B11: 22790243_22790363_661_ncRNA_ENSMUSG00000026784_ENSMUST00000139472|mouse|control|control (ssRNA)
RNA: GGGAGUUCUACAGUCCGACGAUCAGAAAAUCCUUCUGCUUUUCUAGGUUCAGUGGCUAGUCCUAUUCAUUGUAGCACAAGAGAGGGAAUAAAAAGGUCUGAUAGCAAAAAGACAAAAACAAACAACAACAACAAAACAGGCUGCAACAGAGGAUUGAGCAUCA
B12: chr1:37488339:37488340:+_ENSMUSG00000026111_ENSMUST00000027285|mus_mus|FALSE|FALSE (ssRNA)
RNA: GGGAGUUCUACAGUCCGACGAUCGGCAGGGUCAUCUCUGGCCCACUGGUCCUUUGUUUGCUUCCGGUAGUGAAAGUUUCUAUAAACCCUCUGAGGAGAGGUAAACAGGUAGAGCAUCUGCCAUGCAGCAAACUCAAAGUCCAUCAACAGAGGAUUGAGCAUCA
B13: chr17:1265283:1265284:-_ENSG00000108953_ENST00000571732|hu_mus|FALSE|FALSE (ssRNA)
RNA: GGGAGUUCUACAGUCCGACGAUCGUUAGCUGCUGGAAUGAGGUGUUUGUCCAGUACAUCCAGAAUGUCACAACAGAUUAACUUGAGCUCAGUUUCAACCAUUUGCCGGUACUCCCGAAUCAUCUUUAAUUUGUCCUCUCCUCCCAACAGAGGAUUGAGCAUCA
B14: chr5:40767622:40767623:-_ENSG00000132356_ENST00000397128|hu_hu|motif|central (ssRNA)
RNA: GGGAGUUCUACAGUCCGACGAUCAUCUUUGAUUGUGGCCCUCUUCAUGGGAUCCACCUGCAGCAUAUGUUUCAAAAGGCGGAUCACAGAAGGAUUUAAAUAUUGAGGGGUAUAGAAGAUCCCAUCACAUAUCUUCUUAAAAAGCAACAGAGGAUUGAGCAUCA
B15: chr6:114281168:114281169:-_ENSG00000196591_ENST00000368632|hu_hu|hu_hu_hu_mus_True|8_38 (ssRNA)
RNA: GGGAGUUCUACAGUCCGACGAUCUUCCAUUUUUCGGUAUAAACCAUAAUUUAGCAGCAAGUUAUGAGUCAUCCGGAUUCUAUGAGGCUUCAUGGGAUGACCCUGUCCAUAAUAAUAAUUGCCAAUAUCACAGAUUCAGUAGUACAACAGAGGAUUGAGCAUCA
B16: chr16:29654537:29654538:+_ENSMUSG00000038084_ENSMUST00000160597|mus_mus|FALSE|FALSE (ssRNA)
RNA: GGGAGUUCUACAGUCCGACGAUCUUACAUCGAGUGUAAGGUUUAAAAAUAAUACAAAGUCCAUUCACAGUGCACAGUGACGACAUGGUUAAGUUUUAAAUAUUUAGAUAUCAAAUAGCCAUGAUCGUUUAGAAGGUAAGCAUACAACAGAGGAUUGAGCAUCA
B17: chr3:133011071:133011072:+_ENSMUSG00000028013_ENSMUST00000029644|mus_mus|FALSE|FALSE (ssRNA)
RNA: GGGAGUUCUACAGUCCGACGAUCCAAAGUCCCAAGGAUCUUCACAUGGACCACGUCUCCACGGGAAAGAACCUUUGAGCCUAUUUCACAGACGUCAAUGGGAUCAUUAUCCCCACAGCAGUCGGUGCUCUUAUCUCUUAGGUGCAACAGAGGAUUGAGCAUCA
B18: chr20:33097842:33097843:+_ENSG00000078747_ENST00000374864|hu_mus|FALSE|FALSE (ssRNA)
RNA: GGGAGUUCUACAGUCCGACGAUCUAAAAAUAUUAAAUAGCCAAGCCCUAUAGAACUAGGGCCAGGACUACUUCAAAUAUAACUUCUGUAUUUUAAAAAUAUAGGGCAGAAAGCCUUUUGGAUGAUAUUUAUACAUUUUCACAUCAACAGAGGAUUGAGCAUCA
B19: chr11:50626376:50626377:-_ENSMUSG00000044807_ENSMUST00000109135|mus_hu|motif|central (ssRNA)
RNA: GGGAGUUCUACAGUCCGACGAUCAAAUCCUUCGUUAGUACAAUGAAAGGCUAUAAUUAAACUAAAAUCUCUCCUGGCUCGGAUGAGCUACCAGACAUGCAGCCUGAGAUUCUGCCAAAUACAUCCCUUCUGCAACAGAUAACACAACAGAGGAUUGAGCAUCA
B20: chr7:141438946:141438947:+_ENSG00000106028_ENST00000265304|hu_mus|hu_hu_hu_mus_True|1_38 (ssRNA)
RNA: GGGAGUUCUACAGUCCGACGAUCGACGAAAUACCUGUAACACAGGUCUUCGAAACAUGGCUUCUGUUUUUCUUACAACCUAAUCUUUAGGCUUUUCCUGACGAUCUGAAAGAAAAGAGAAAAAUGAUAAAUCAAGAACUUCCGCAACAGAGGAUUGAGCAUCA
B21: chr3:179287964:179287965:+_ENSG00000136518_ENST00000429709|hu_hu|hu_hu_hu_mus_True|1_48 (ssRNA)
RNA: GGGAGUUCUACAGUCCGACGAUCCUUGAGUGGUGAGAUGGCCUCCAUGUUCUCCCUGGGCACGCGGAGGGCAUUGGUGUCUAUGUAGUAGGUGGGACCGCCCUGCUUGCCUUUGUCACCAUCAAUCUCCAUCAUUGUGCUUCCCAACAGAGGAUUGAGCAUCA
B22: chr4:76721835:76721836:+_ENSG00000138768_ENST00000264904|hu_mus|hu_hu_hu_mus_True|1_78 (ssRNA)
RNA: GGGAGUUCUACAGUCCGACGAUCGUUUGGCUGGGGUUUCUGAGACGCUCUGGAAUAAACUCAUGUUUUGCUAAUAAAUCCUAGUUUCUCUAUGAAAUUCUCUUUGCCAAUCCUCUUCUCUAUUAGUUGCUUUAGUUCUCUUUCCAACAGAGGAUUGAGCAUCA

Molecular target: T1, UNK ZnF1-3
Assay: nsRBNS (natural sequence RNA bind-n-seq); RBNS binding buffer (assumed for nsRBNS): 25 mM Tris pH 7.5, 150 mM KCl, 3 mM MgCl2, 0.01% Triton X-100, 500 ug/ml BSA, 20 U/ml SUPERase-In, 4 C; UNK is unkempt and MSI1 is Musashi-1; names of the RNAs are library labels; protein concentration not given here; high values mean tight binding

Binder	binding signal
B1	1.17 enrichment R
B2	2.39 enrichment R
B3	0.834 enrichment R
B4	1.18 enrichment R
B5	1.71 enrichment R
B6	1.3 enrichment R
B7	0.682 enrichment R
B8	1.07 enrichment R
B9	0.748 enrichment R
B10	0.835 enrichment R
B11	2.17 enrichment R
B12	0.929 enrichment R
B13	1.35 enrichment R
B14	0.981 enrichment R
B15	0.886 enrichment R
B16	0.995 enrichment R
B17	0.607 enrichment R
B18	0.861 enrichment R
B19	1.25 enrichment R
B20	0.416 enrichment R
B21	0.66 enrichment R
B22	0.485 enrichment R
